The values that follow come from publication PMC4336329 (PLoS ONE, 2015).

Screen size: about 310,000 compounds; about 2,200 (0.71%) showed an effect of 50% or more. The effect is printed as a negative number. The list shows a part of the results.

Sequence of human ether-à-go-go-related gene (hERG) potassium channel (Q12809 whole entry, looked up): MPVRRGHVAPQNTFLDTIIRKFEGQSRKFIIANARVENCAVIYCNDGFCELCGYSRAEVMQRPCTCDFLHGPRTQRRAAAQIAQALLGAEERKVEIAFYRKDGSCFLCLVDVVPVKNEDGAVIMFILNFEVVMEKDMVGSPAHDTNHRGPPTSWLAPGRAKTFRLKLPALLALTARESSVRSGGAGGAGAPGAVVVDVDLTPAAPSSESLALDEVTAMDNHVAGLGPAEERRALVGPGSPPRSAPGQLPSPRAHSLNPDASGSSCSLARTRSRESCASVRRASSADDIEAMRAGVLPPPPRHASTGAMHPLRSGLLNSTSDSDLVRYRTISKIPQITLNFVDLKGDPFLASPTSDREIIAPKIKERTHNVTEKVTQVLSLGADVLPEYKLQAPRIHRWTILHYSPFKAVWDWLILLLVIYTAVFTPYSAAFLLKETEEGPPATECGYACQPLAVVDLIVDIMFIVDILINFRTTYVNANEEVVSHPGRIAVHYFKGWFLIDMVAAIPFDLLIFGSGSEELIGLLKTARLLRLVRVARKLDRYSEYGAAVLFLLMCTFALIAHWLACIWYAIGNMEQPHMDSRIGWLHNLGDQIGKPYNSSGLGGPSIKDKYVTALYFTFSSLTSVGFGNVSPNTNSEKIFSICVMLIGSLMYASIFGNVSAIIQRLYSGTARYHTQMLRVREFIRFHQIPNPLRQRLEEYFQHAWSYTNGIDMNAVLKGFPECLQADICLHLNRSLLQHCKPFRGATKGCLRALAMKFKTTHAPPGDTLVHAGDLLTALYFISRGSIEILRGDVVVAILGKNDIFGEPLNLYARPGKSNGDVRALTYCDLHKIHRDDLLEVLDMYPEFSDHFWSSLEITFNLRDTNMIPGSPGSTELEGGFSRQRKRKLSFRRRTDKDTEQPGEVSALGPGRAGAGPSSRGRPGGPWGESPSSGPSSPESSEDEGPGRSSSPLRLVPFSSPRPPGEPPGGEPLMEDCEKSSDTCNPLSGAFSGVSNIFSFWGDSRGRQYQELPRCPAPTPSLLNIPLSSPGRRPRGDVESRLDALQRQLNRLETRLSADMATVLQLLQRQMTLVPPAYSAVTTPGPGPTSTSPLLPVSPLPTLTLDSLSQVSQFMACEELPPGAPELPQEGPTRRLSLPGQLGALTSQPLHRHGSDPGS

The assay concerns the target human ether-à-go-go-related gene (hERG) potassium channel (human, UniProt Q12809). Put plainly: primary screen, population patch clamp on CHO cells stably expressing hERG.
Turning to `CCCc1nc(N2CCOCC2)c(C#N)c2c1CCCC2`, the “hERG current change (%, negative = inhibition) at 1uM” value is listed as 12.6%.
For the compound `CN(CC(=O)Nc1ccccc1Cl)C(=O)COC(=O)CCN1C(=O)C2CC=CCC2C1=O` (stereo not drawn), the “hERG current change (%, negative = inhibition) at 1uM” value is 8.86%.
Turning to `Cc1ccc(N2Cc3ccccc3C2=S)cc1`, the “hERG current change (%, negative = inhibition) at 1uM” value is 11.2%.
The value for `O=C(CSc1nnc(-c2ccccn2)n1Cc1ccco1)c1ccc(Cl)cc1` was -9.97%; that for `Nc1ccc(NC(=O)Nc2ccc(N)cc2)cc1` was 18%.
The value for `CC(CCc1ccccc1)NC(=S)NC(=O)c1ccco1` (stereo not drawn) was 5.49%; that for `CCN(CC(=O)Nc1c(F)cccc1F)C(=O)Cc1ccc2c(c1)OCCO2` was 9.35%; that for `O=C(NCC1CCCO1)C(=O)N/N=C/c1ccc(OCc2ccccc2Cl)cc1` (stereo not drawn) was 8.5%.
The result for `COc1cccc2cc(C(=O)OCC(=O)NCc3ccc4c(c3)OCO4)c(=O)oc12` reads 8.14%; that for `COc1cccc(C(=O)NC2CCCc3ccccc32)c1OC` (stereo not drawn), 12.4%; that for `CSc1ncccc1C(=O)NC1CC(C)(C)Cc2c1cnn2-c1ccccc1C` (stereo not drawn), 3.44%.
For the compound `COc1ccc(OP(=O)(Nc2ccccc2)Nc2ccccc2)cc1`, the “hERG current change (%, negative = inhibition) at 1uM” value is given as 5.66%.
The value for `CC(=O)n1cc([C@@H]2C=C(C(=O)Nc3ccccc3)O[C@H](OCc3ccc(CO)cc3)C2)c2ccccc21` was 5.55%.
As for `COc1ccc(S(=O)(=O)Nc2ncccn2)cc1`, the “hERG current change (%, negative = inhibition) at 1uM” value came out at 10.2%.
As for `O=C1CCCC2=C1C(c1ccccc1O)C1=C(CCCC1=O)O2`, the “hERG current change (%, negative = inhibition) at 1uM” value came out at 6.66%.
The value for `Cc1ccc(C(OC(=O)c2ccco2)C(=O)NC2CCCCC2)cc1` (stereo not drawn) was 16.2%.
The result for `COc1ccc2oc(C(=O)OCC(=O)NC(C)(C#N)C3CC3)c(C)c2c1` (stereo not drawn) reads 16.7%; that for `Cc1cccc(N2CCN(c3ccc(C(N)=O)cc3[N+](=O)[O-])CC2)c1C`, 19.9%.
As to `Cc1ccc(NC(=O)CCc2c(C)nn(-c3ccc(N4CCOCC4)nn3)c2C)cc1C`, the “hERG current change (%, negative = inhibition) at 1uM” value turned out to be 8.88%.
The value for `O=c1oc2ccccc2cc1-c1nc2c(s1)CCCC2` was 7.85%.
The value for `CCOC(=O)c1c(C)[nH]c(N=Nc2ccc(C)cc2C)c1C` was 13.9%; that for `CC1CCCC(NC(=O)Cn2cc3c(n2)CCCCC3)C1C` (stereo not drawn) was 6.63%; that for `Cc1cnc(C(=O)N2CCCC(C(=O)c3ccc(C(C)(C)C)cc3)C2)cn1` (stereo not drawn) was 3.19%.
Regarding `CC(=O)Nc1nc(C)c(-c2nc3ccc([N+](=O)[O-])cc3[nH]2)s1`, the “hERG current change (%, negative = inhibition) at 1uM” value was determined as 19.4%.
The result for `CN1C=CC2=C(C#N)C(N)C(C#N)(C#N)C(c3ccccc3)C2C1` (stereo not drawn) reads 13.1%; that for `c1ccc2c(CNn3cnnc3)cccc2c1`, 14.4%.
For `NC(=O)CSc1nc(O)cc(=O)n1-c1ccccc1`, the “hERG current change (%, negative = inhibition) at 1uM” value stood at 7.53%.
The result for `O=C1C(Cl)=C(Nc2ccccc2O)C(=O)N1c1ccccc1` reads 13.2%; that for `O=c1cc(-c2ccccc2F)oc2ccccc12`, 2.56%.
In the case of `CCCCC(=O)NNC(=S)NC(=O)CCC`, the “hERG current change (%, negative = inhibition) at 1uM” value came out at 10.9%.
The value for `O=C1CSc2ccc(S(=O)(=O)NCc3ccc(Cl)cc3)cc2N1` was 11.3%; that for `CC(=NCC1CCCO1)c1c(O)n(Cc2ccccc2)c(=O)[nH]c1=O` (stereo not drawn) was -0.931%; that for `Cn1c(=O)c2c(nc3n2CCS3)n(C)c1=O` was 10.5%.
The result for `N#Cc1nc(COc2ccccc2Cl)oc1NCc1ccco1` reads 12%.
Take `Cc1ccc(N=Nc2c(N)nn3c(C)cc(C)nc23)cc1`: the “hERG current change (%, negative = inhibition) at 1uM” value is listed as -4.11%.
As to `Cc1cc(C)c(C#N)c(SCc2ccccc2C(=O)O)n1`, the “hERG current change (%, negative = inhibition) at 1uM” value was 4.89%.
The result for `O=C(Nc1nnc(C2COc3ccccc3O2)o1)c1ccc(F)cc1` (stereo not drawn) reads 14.8%; that for `CC(=O)Nc1cc(C)c2nc(NC(C)=O)sc2c1`, 8.22%.
As to `O=C(NCc1cccnc1)/C(=C/c1ccco1)NC(=O)c1ccccc1`, the “hERG current change (%, negative = inhibition) at 1uM” value is listed as -28.3%.
The result for `COc1ccc(NC(=O)CN2C(=O)c3cccc4cccc2c34)c(OC)c1` reads 12.5%.
The value for `CCN(CC)C(=O)Cn1cnc2sc(C(=O)NCCCN3CCOCC3)c(C)c2c1=O` was 16.1%; that for `O=C1CSC(c2ccccc2Cl)N1` (stereo not drawn) was 11.6%; that for `CCOC(CNC(=O)c1cccn2c(=O)c3cc(Cl)ccc3nc12)OCC` was 2.09%.
Regarding `C=CCc1ccc(OCC(O)CN2CCCCC2C)c(OC)c1.Cl` (stereo not drawn), the “hERG current change (%, negative = inhibition) at 1uM” value was -14.1%.
For `COCCNC(=O)c1csc2c1CCCC2`, the “hERG current change (%, negative = inhibition) at 1uM” value was determined as 8.93%.
The result for `O=C(NCCCN1CCOCC1)c1cc(C(=O)C2CC2)c[nH]1` reads 21.7%.
The value for `O=C(NCc1ccccc1)C(c1cccnc1)N(Cc1ccco1)C(=O)c1ccccn1` (stereo not drawn) was 7.61%.
Take `COCCCn1cnnc1SCC(=O)Nc1ccc(S(=O)(=O)N2CCCC2)cc1`: the “hERG current change (%, negative = inhibition) at 1uM” value stood at 13%.
Take `CC(C)(C)c1ccc(C(=O)NCCCN2CCN(CCCNC(=O)c3ccc(C(C)(C)C)cc3)CC2)cc1`: the “hERG current change (%, negative = inhibition) at 1uM” value was -5.37%.
The value for `Cc1ccc(S(=O)(=O)Nc2ccc(Cl)cc2C(=O)c2ccc(F)cc2)cc1` was 5.62%; that for `O=C(NCc1cccnc1)Nc1ccccc1` was -1.8%; that for `CCCNC(=O)c1cnc(-c2ccccc2)nc1-c1ccccc1` was 10.3%.
Take `CCC(C)Sc1cc(C(F)(F)F)c(C(=O)Nc2ccc(Cl)cc2)cn1` (stereo not drawn): the “hERG current change (%, negative = inhibition) at 1uM” value is on record as 8.07%.
Turning to `CC(C)CNCC1OCc2ccccc2CO1.Cl`, the “hERG current change (%, negative = inhibition) at 1uM” value worked out at 13.9%.
The result for `Cc1ccccc1CNC(=O)CCC(=O)N1CCOc2ccc(Cl)cc21` reads 4.97%.
The value for `O=C(NCCCCNC(=O)c1ccccn1)c1ccccn1` was -0.293%.
The result for `COc1ccc(CNS(=O)(=O)CCNC(=O)c2ccc(OC)cc2)cc1` reads -4.38%; that for `O=C(COC(=O)CCc1nc2ccccc2s1)NCc1ccco1`, 14%.
Consider `COc1cccc(CNCCO)c1OCc1ccccc1.Cl`, for which the “hERG current change (%, negative = inhibition) at 1uM” value is on record as 5.98%.
On to `N#Cc1c[nH]n2c(=O)c3c(nc12)CCC3`, for which the “hERG current change (%, negative = inhibition) at 1uM” value was 14.5%.
